2 molecules from patent US20230340048A1 can be followed below.

For assay [1], the target named is TGFβ3 (UniProt P10600). Description: cell-based or functional assay.
For assay [2], the target named is TGFβ1 (UniProt P01137). Description: cell-based or functional assay.
Chain of UniProt P01137 (P01137 279-390 limits assumed): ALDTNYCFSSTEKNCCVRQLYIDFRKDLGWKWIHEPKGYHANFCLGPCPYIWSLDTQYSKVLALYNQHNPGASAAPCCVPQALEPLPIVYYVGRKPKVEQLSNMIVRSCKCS

Chain of UniProt P10600 (P10600 301-412): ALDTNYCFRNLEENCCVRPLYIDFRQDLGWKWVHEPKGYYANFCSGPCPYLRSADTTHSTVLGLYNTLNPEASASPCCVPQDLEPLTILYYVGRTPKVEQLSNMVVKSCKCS

B1: Protein 134 (Fc fusion)
chain: IPPHVQKSVNNDMIVTDNNGAVKFPQLCKFCDVRFSTCDNQKSCMSNCSITSICEKPQEVCVAVWRKNDENITLETVCHDPKLPYHDFILEDAASPKCIMKEKKKPGETFFMCSCSSDECNDNIIFSEEYNTSNPDDNNGAVKFPQLCKFCDVRFSTCDNQKSCMSNCSITSICEKPQEVCVAVWRKNDENITLETVCHDPKLPYHDFILEDAASPKCIMKEKKKPGETFFMCSCSSDECNDNIIFGGGGSGGGGSGGGG[human IgG1 Fc and a few adjoining residues not spelt out]
In the case of B1, in assay [1], the Average IC50, A549/IL-11 release assay was 0.0296 nM and the IC50 Ratio TGFβ3:TGFβ1 (average ratio), A549/IL-11 release assay was 1.54. For the same molecule, the Average IC50, A549/IL-11 release assay in assay [2] was found to be 0.0202 nM.

B2: Protein 135 (Fc fusion)
chain: IPPHVQKSVNNDMIVTDNNGAVKFPQLCKFCDVRFSTCDNQKSCMSNCSITSICEKPQEVCVAVWRKNDENITLETVCHDPKLPYHDFILEDAASPKCIMKEKKKPGETFFMCSCSSDECNDNIIFGGGGSGGGGSGGGGSGGGPQLCKFCDVRFSTCDNQKSCMSNCSITSICEKPQEVCVAVWRKNDENITLETVCHDPKLPYHDFILEDAASPKCIMKEKKKPGETFFMCSCSSDECNDNIIFSEEYNTSNPDNGAV[human IgG1 Fc and a few adjoining residues not spelt out]
Turning to B2, in assay [1], the Average IC50, A549/IL-11 release assay was found to be 0.0375 nM and the IC50 Ratio TGFβ3:TGFβ1 (average ratio), A549/IL-11 release assay was determined as 1.17. This molecule yielded an Average IC50, A549/IL-11 release assay in assay [2] of 0.0395 nM.
